Test results reported in the supplement of paper PMC3334620.
Whole data set: some 33,000 sequences, median “E-score (-0.5 to 0.5)” near -0.01, cut for the highest 2% near 0.26. The list shows a part of the results.

Biological target: Ste12 (UniProt P13574)
Assay: PBM E-score (8-mer binding enrichment) (E-score (-0.5 to 0.5)); higher = stronger / more preferred TF binding; most listed sequences are background and not binding sites
Details: protein concentration: 200 nM; construct: GST-DNA-binding domain
Procedure, shortened: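 Masliner-normalised scans of fluorescent anti-GST signal were the basis for scoring. That signal came from GST-tagged yeast transcription factors applied at about 100-200 nM to double-stranded universal all-10-mer Agilent arrays on fresh or once-stripped slides. Each ungapped eight-base word, pooled with its reverse complement, received an E-score from the Universal PBM Analysis Suite.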

Sequence	PBM E-score
GGATCTAA	0.064
CTAACCCC	-0.104
GAGGGATA	-0.18
GTCGGCTA	-0.108
GGATCGTA	-0.00637
CCATTGAA	0.0002
CTATCAGC	0.136
ACACGTCA	-0.0589
ATTCCTCA	0.0459
CCGAAACA	0.376
CTTGACTA	-0.106
AGCTGGAA	-0.135
CTCGCGAC	0.0527
CCAAGACA	0.0816
TACGGGCA	-0.0396
ATAGATAG	0.0401
ACGCACAT	-0.0688
AGTCTTTA	-0.234
AGTATCAT	0.113
CTCATGAC	0.0559
AGACGGCG	-0.147
AATCTGTG	-0.0157
AACTAGCG	0.0845
CCAAGCAG	0.0354
AGGCGTGG	-0.219

Sequence	PBM E-score
AACCAGTC	-0.053
AGGGGGTA	-0.105
AGCTGGCA	0.0291
CCTTGCGA	-0.0403
AAACTGGC	0.124
ATCAGAAC	-0.0373
GCAACGGC	0.0446
ATACGGGG	0.0547
CTTTCGAC	-0.0743
GGCACGTA	-0.00609
AGTCGGAG	-0.00714
GGCCCTCA	-0.152
AGCCCTGG	-0.173
GCCACTAC	-0.111
ACACATTA	0.148
ACGCATAA	0.0839
AAAGTACG	0.067
GTCATACA	-0.0326
GTTTGATA	0.301
CGCAATTA	0.125
AATAGTAG	0.0106
ACAAAGCT	-0.0152
AACACACT	0.124
CCTAGCGC	-0.0769
CAACCGTC	-0.252

Sequence	PBM E-score
ACTTTCAC	0.139
GCCTTCAA	-0.02
ATATCGCC	-0.0473
AGTGCATG	-0.204
TAGCCAAA	0.221
ATATTGCA	0.104
TGACCCAA	-0.047
CTCTAGTC	-0.323
ATTATACC	0.0986
CGCACGTC	-0.0182
GCAATTCA	-0.185
GAGCCGTA	-0.0366
CACCAATA	0.00356
ACCAGATA	0.0459
AGACTAAT	-0.0229
CATGTAAC	0.245
TAGAGTGA	-0.0179
CCCCACTC	0.121
AGCTGGCG	-0.256
ACCTGCTC	-0.0508
ACCGTCAC	-0.141
CTTAGGCA	-0.304
CGTTGTAG	0.049
AACGCTTA	-0.0484
TATGCGAA	0.091

Sequence	PBM E-score
AAGAGGTA	0.114
GACATCTC	-0.0784
CTGGGGTC	-0.0744
CGCTATTA	0.0181
AGGTATCG	0.167
CAAAGGAA	0.16
AAGTCTAT	-0.0803
CATTTGGG	-0.0669
AACCTGTA	0.0256
GACCCCGC	0.199
ACTATTTG	0.066
AGTGGACG	0.0409
ATGCCGAA	0.0285
GAAGACGA	-0.0462
ACGTTGCA	0.0593
ATTCGAAT	0.268
CCACCCTC	0.119
CCCAGGAA	-0.0197
CTTGGCTA	0.0252
CCTGGACG	-0.194
AACTAGGT	0.0822
ACGTTCCA	0.135
ACGCAATC	-0.0921
AACTGAGG	0.139
GGTGAACA	-0.235

Sequence	PBM E-score
AATGACTG	-0.157
AGCAATTA	0.0971
AACCACAA	0.185
GCGCCTTA	-0.0184
CGAAGCCA	-0.0797
AGGTACAA	-0.158
ATTCCGAC	0.112
CGGAGGCA	-0.0443
CGACAGAC	-0.00066
GTAACTAC	0.0102
AAATCTCT	0.151
AGCGGTTC	0.00472
ACACCTAA	0.0318
ACGGAATG	-0.0943
GGACTGAA	-0.0764
CCAGTGTC	-0.0683
AATCCGAT	0.188
CAGAAACA	0.156
GCAAACTA	0.207
ACTTGAAG	0.119
ATTCATCG	0.0816
CGTGCCGC	-0.168
ACACTGAG	0.057
ATCTCTGA	-0.0389
CCTAACCG	-0.216

Sequence	PBM E-score
CAAAACGG	0.302
GCTCTTCC	-0.115
AAACCGAC	0.198
AAAGTGGT	0.00299
ACACATAC	-0.134
ATCAAGCC	0.0686
TCATAAAA	0.231
CCGCGGGC	0.179
CTAAATGA	-0.0349
AAGCCCTC	-0.0807
CTTCATCC	0.0361
CTCGAGCA	-0.0319
CGGCCTTA	0.0449
ACAAGTGC	-0.149
AGAATCAT	-0.00992
GCGTGGCC	-0.116
ATTGGTAA	0.143
AGCGATGC	-0.23
ACGGGGAA	0.13
AAACCAGA	0.0662
ACAGATGA	-0.0786
AACACCCT	-0.0687
GGGAAACC	0.0292
AAATCCGG	0.0201
GAACCGAA	-0.113

Sequence	PBM E-score
CAAAAGCA	0.0531
GTGAAAAC	0.0815
AGCGAAGC	-0.267
AAGTTGAC	0.0703
CATCACCC	-0.0102
GGAGCAAC	-0.0379
ACAGCGCT	0.132
AACTTACG	-0.172
CAGGAAAC	-0.0383
GTACTATA	0.0549
CCGAGACC	0.0929
TTAATCAA	0.212
ACAGTCTA	-0.156
CCACTTGA	0.198
TAGCACTA	-0.138
GGGAATAC	-0.0655
GGATGCCA	-0.217
GGTCAGTA	-0.179
GCTATTAC	0.165
CTAAACAA	0.16
ATCCCCCG	0.0216
ACCAACCT	0.0089
CGAGGGGA	0.0767
CGTTAATC	0.0362
GGTGATAA	0.17

Sequence	PBM E-score
AGGTAAAT	0.159
CGGGGCTC	-0.0955
CTCACTAA	0.107
ACCATCAA	-0.152
CCGTCAGC	-0.115
CTAATATC	0.0817
GCCAGATA	-0.0626
ACGTCATA	-0.0167
CCTATAGC	-0.258
AGCATACG	0.00544
ATCCCACG	-0.107
CTTAGGTC	0.0752
AACTGCCA	-0.104
AGCGCATA	0.0217
CGCTCAGA	0.0473
CCTTCGGA	-0.136
AATACCGG	0.0301
CGCAAGAA	0.0941
CCGAGACG	0.0139
AACTGCCG	0.00429
GCAAGAAA	0.173
ATCGTATC	0.0584
TAAAGCTA	-0.18
CGCCGCTA	0.0728
AGTGCCCA	-0.0639

Sequence	PBM E-score
AGTCCTTG	-0.264
GATGGCAA	0.0154
GGACGGAC	-0.121
GCAGGGCC	-0.172
AACGGTCA	0.119
CATGGGAC	0.0343
CGACTTTC	0.0311
GCACAGTA	-0.104
ACGAAATA	-0.0859
GCCGTACC	-0.029
CAGGCCGG	-0.246
AACCACAG	-0.0528
GTCGAGGA	-0.25
ACCATGCC	-0.0505
TAGATACA	0.00707
AAGGCGTC	-0.0407
GAAATATA	0.284
CAAGAGAG	-0.214
CGCCTGTC	-0.223
